Experimental data from article PMC4336329 (PLoS ONE, 2015).
In all, about 310,000 compounds went through this assay and about 14,000 (4.5%) showed an effect of 50% or more. Effects have a minus sign here. This is one part of the list.
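Note: peak tail current of the secondary pulse compared with the same well before compound.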

The compounds below were run against human ether-à-go-go-related gene (hERG) potassium channel (human, UniProt Q12809) (assay: primary screen, population patch clamp on CHO cells stably expressing hERG).
Sequence of human ether-à-go-go-related gene (hERG) potassium channel (Q12809 whole entry, looked up): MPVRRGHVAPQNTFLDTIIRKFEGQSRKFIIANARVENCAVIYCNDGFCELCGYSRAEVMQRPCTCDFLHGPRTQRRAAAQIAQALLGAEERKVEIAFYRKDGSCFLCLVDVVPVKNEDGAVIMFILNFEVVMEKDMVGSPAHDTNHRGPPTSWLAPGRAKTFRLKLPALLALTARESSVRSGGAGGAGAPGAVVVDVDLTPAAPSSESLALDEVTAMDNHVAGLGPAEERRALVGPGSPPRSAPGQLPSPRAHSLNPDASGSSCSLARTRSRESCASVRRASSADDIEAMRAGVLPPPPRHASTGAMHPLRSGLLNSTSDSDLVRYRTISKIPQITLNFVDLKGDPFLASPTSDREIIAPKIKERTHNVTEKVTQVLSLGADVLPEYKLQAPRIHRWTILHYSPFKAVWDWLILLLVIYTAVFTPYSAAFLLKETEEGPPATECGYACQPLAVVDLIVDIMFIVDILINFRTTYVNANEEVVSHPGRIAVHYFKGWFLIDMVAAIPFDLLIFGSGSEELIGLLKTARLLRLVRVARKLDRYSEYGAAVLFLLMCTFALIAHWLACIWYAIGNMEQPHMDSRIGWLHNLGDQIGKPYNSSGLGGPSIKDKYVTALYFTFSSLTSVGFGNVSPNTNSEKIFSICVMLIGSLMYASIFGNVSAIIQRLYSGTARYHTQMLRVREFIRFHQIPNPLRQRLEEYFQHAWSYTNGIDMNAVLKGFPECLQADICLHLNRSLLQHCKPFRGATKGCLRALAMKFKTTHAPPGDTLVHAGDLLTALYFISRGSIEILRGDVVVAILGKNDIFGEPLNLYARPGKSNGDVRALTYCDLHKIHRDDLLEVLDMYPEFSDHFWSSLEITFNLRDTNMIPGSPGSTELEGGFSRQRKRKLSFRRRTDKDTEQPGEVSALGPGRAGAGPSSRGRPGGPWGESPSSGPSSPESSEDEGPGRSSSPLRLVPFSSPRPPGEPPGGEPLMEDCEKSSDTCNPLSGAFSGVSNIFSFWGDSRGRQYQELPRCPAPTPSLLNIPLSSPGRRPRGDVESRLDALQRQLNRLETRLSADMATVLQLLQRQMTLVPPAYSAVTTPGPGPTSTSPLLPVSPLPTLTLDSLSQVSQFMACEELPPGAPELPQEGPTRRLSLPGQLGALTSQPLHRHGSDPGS
In the case of `CC(C)C(=O)Nc1c2c(nn1-c1ccccc1)CSC2`, the “hERG current change (%, negative = inhibition) at 10uM” value is reported as 8.39%.
`Cc1ccc(CNC(=O)C2CCC(=O)N(Cc3ccccc3F)C2)s1` (stereo not shown) was tested, and the “hERG current change (%, negative = inhibition) at 10uM” value was -15.7%.
For `CN(CCOc1ccc(-c2ccn(S(=O)(=O)c3ccc(Cl)cc3)n2)cc1)c1ccccn1`, the “hERG current change (%, negative = inhibition) at 10uM” value was 12.9%.
For `CCC1CN(C(=O)N2CCC(C(=O)NCc3ccc(C)o3)CC2)c2ccccc2O1` (stereo not shown), the “hERG current change (%, negative = inhibition) at 10uM” value was -3.13%.
With `Fc1cccc(NC(=S)Nc2ccc(Br)cc2)c1` the “hERG current change (%, negative = inhibition) at 10uM” value was 10.3%.
For `C=CCn1c(SC(C)C(=O)NCc2ccc3c(c2)OCO3)nc2scc(-c3ccccc3)c2c1=O` (stereo not shown), the “hERG current change (%, negative = inhibition) at 10uM” value was -31.4%.
For `O=C(CNC(=O)Cc1ccc(Cl)cc1)NCC(=O)N1CCCCC1`, the “hERG current change (%, negative = inhibition) at 10uM” value was 17.9%.
In the case of `CCCN(CC(=O)Nc1ccc(Cl)cc1Cl)Cc1cc(=O)n2ccsc2n1`, the “hERG current change (%, negative = inhibition) at 10uM” value is reported as -37.3%.
For `CC1CCCCC1NC(=O)C1CCN(S(=O)(=O)N2CCC3(CC2)OCCO3)CC1` (stereo not shown), the “hERG current change (%, negative = inhibition) at 10uM” value was 11.6%.
With `COc1ccccc1NC(=S)NCCSc1ccc(C)cc1` the “hERG current change (%, negative = inhibition) at 10uM” value was -39.2%.
In the case of `C=CCN1C(=O)c2ccc(C(=O)N(C)CC(=O)Nc3ccccc3Cl)cc2C1=O`, the “hERG current change (%, negative = inhibition) at 10uM” value is reported as -25.9%.
In the case of `COc1ccc(NS(=O)(=O)c2c(C)[nH]c(=O)[nH]c2=O)c(OC)c1`, the “hERG current change (%, negative = inhibition) at 10uM” value is reported as 30.7%.
With `COc1ccc([C@H]2/C=C\CN(Cc3ccc(N(C)C)cc3)[C@@H](C)C(=O)N2Cc2ccc(F)cc2)cc1` the “hERG current change (%, negative = inhibition) at 10uM” value was -10.9%.
`O=C(N/N=C/c1cc2cc3c(cc2nc1Cl)OCCO3)c1ccccc1O` was tested, and the “hERG current change (%, negative = inhibition) at 10uM” value was 12%.
For `COc1ccc(-c2cc(C(=O)Nc3cc(OC)c(OC)c(OC)c3)no2)cc1`, the “hERG current change (%, negative = inhibition) at 10uM” value was 13.5%.
With `CCOC(=O)N1CCN(c2c(F)cc3[nH]c(=S)[nH]c3c2Br)CC1` the “hERG current change (%, negative = inhibition) at 10uM” value was -10.5%.
In the case of `CCn1cc(CN2N=C(C)CC2c2ccccc2)c(C)n1` (stereo not shown), the “hERG current change (%, negative = inhibition) at 10uM” value is reported as -3.09%.
`COc1ccc(CCC(=O)Nc2ccc(C)c([N+](=O)[O-])c2)cc1` was tested, and the “hERG current change (%, negative = inhibition) at 10uM” value was 1.98%.
`Cl.O=C(OCCN1CCOCC1)C(c1ccccc1)c1ccccc1` was tested, and the “hERG current change (%, negative = inhibition) at 10uM” value was -3.57%.
`O=C(Nc1ccc(N2CCN(Cc3ccccc3)CC2)cc1)c1ccco1` was tested, and the “hERG current change (%, negative = inhibition) at 10uM” value was -8.19%.
`Cc1c(N(C(=O)CNC(=O)c2ccccc2)C2(C(=O)NC3CCCC3)CCCCC2)c(=O)n(-c2ccccc2)n1C` was tested, and the “hERG current change (%, negative = inhibition) at 10uM” value was -4.39%.
In the case of `CCOC(=O)c1[nH]c(C)c(C(=O)OCC(=O)NCc2ccc(OC)c(OC)c2)c1C`, the “hERG current change (%, negative = inhibition) at 10uM” value is reported as 6.38%.
For `O=C(Cn1nc(C(=O)O)c2ccccc2c1=O)Nc1cc(C(F)(F)F)ccc1-n1cncn1`, the “hERG current change (%, negative = inhibition) at 10uM” value was 1.03%.
For `O=C(Cc1cccs1)Nc1ccc(S(=O)(=O)N2CCCCC2)cc1`, the “hERG current change (%, negative = inhibition) at 10uM” value was 5.37%.
In the case of `COc1ccc(C(=O)CC(CC(=O)c2ccc(OC)cc2)C(=O)O)cc1`, the “hERG current change (%, negative = inhibition) at 10uM” value is reported as 15.4%.
In the case of `COc1ccccc1NNC(=O)c1cc(C(C)(C)C)nn1Cc1ccccc1`, the “hERG current change (%, negative = inhibition) at 10uM” value is reported as -9.89%.
In the case of `Br.O=C(CN1CCSC1=NCc1ccccc1)c1ccc(Cl)cc1`, the “hERG current change (%, negative = inhibition) at 10uM” value is reported as -53.9%.
For `CSCc1ccc(C(=O)NCc2ccc(C)cc2)cc1`, the “hERG current change (%, negative = inhibition) at 10uM” value was -8.98%.
In the case of `COc1cc(NS(=O)(=O)c2ccc(NC(=S)NC(=O)COc3ccccc3OC)cc2)nc(OC)n1`, the “hERG current change (%, negative = inhibition) at 10uM” value is reported as -5.94%.
With `O=C(Cn1nnc(-c2ccccc2F)n1)Nc1ccc(C(=O)N2CCOCC2)cc1` the “hERG current change (%, negative = inhibition) at 10uM” value was -12.7%.
`Cn1c(CCN2CCN(c3ccccn3)CC2)nc2cc(NC(=O)COc3ccccc3)ccc21` was tested, and the “hERG current change (%, negative = inhibition) at 10uM” value was -72.5%.
In the case of `Nc1nncn1C(=O)c1ccc(Cl)cc1Cl`, the “hERG current change (%, negative = inhibition) at 10uM” value is reported as 11.7%.
In the case of `CCc1nc2c(c(SC)nn2-c2ccccc2)c(N)c1C(=O)OC`, the “hERG current change (%, negative = inhibition) at 10uM” value is reported as 7.48%.
With `O=C(Cc1ccccc1)Nc1ccc(NC(=S)NC(=O)c2ccccc2)cc1` the “hERG current change (%, negative = inhibition) at 10uM” value was 9.38%.
`Cc1ccc(C(=O)Nc2ccc(C(=O)N/N=C/c3ccccn3)cc2)cc1` was tested, and the “hERG current change (%, negative = inhibition) at 10uM” value was -2.88%.
In the case of `COc1ccc(CC(=O)O/N=C(\N)Cc2ccc(OC)cc2)cc1`, the “hERG current change (%, negative = inhibition) at 10uM” value is reported as -0.323%.
For `COc1cc(/C=N/NC(=O)c2ccc3nc[nH]c3c2)ccc1O`, the “hERG current change (%, negative = inhibition) at 10uM” value was 4.74%.
`COc1cc(/C=N/NC(=O)c2cccc(S(=O)(=O)N3CCCC3)c2)cc(OC)c1O` was tested, and the “hERG current change (%, negative = inhibition) at 10uM” value was 12.1%.
In the case of `CC(=O)c1cccc(NS(=O)(=O)c2cc(OCC(N)=O)c(C)cc2Cl)c1`, the “hERG current change (%, negative = inhibition) at 10uM” value is reported as 6.92%.
With `CN1CCN(c2ccc(Cl)cc2NC(=O)c2ccc(S(=O)(=O)N3CCCCCC3)cc2)CC1` the “hERG current change (%, negative = inhibition) at 10uM” value was 5.4%.
With `CCCCCN(C(=O)CCC(=O)OCc1ccc(Cl)cc1Cl)c1c(N)n(CCCC)c(=O)[nH]c1=O` the “hERG current change (%, negative = inhibition) at 10uM” value was -50.1%.
With `C/C(=N\Oc1cccc(F)n1)c1ccc(Cl)cc1Cl` the “hERG current change (%, negative = inhibition) at 10uM” value was 15.5%.
In the case of `O=C1OC(c2ccc(Cl)cc2)=C/C1=C/c1cccnc1`, the “hERG current change (%, negative = inhibition) at 10uM” value is reported as 23.3%.
